Laboratory results taken from the supplement of paper PMC10322689.
Several values for one entry are separate records, joined by “and”; a condition that tells them apart may be missing. Equal entries are not always repeated. Structures can show the parent of a compound that is named as a salt. ± gives the standard deviation of the averaged measurements. The list shows a part of the results. Repeats are few or missing, and single values can be far off.

tested on: mouse mesenchymal chondrosarcoma cells (HEY1-NCOA2); experiment: XTT absorbance relative to DMSO control (cell viability) (fraction of DMSO control); higher = more viable cells / less growth inhibition

Row | SMILES | XTT absorbance
1 | CC[C@@]1(O)C(=O)OCc2c1cc1n(c2=O)Cc2cc3ccccc3nc2-1 [Camptothecin] | 0.435
2 | O[C@H]1[C@H]2[C@H](O)CCCN2C[C@H]1O [Swainsonine] | 0.96
3 | CC[C@H]1/C=C/C=C/C[C@@H](C)[C@H](O)[C@@](C)(O)C(=O)[C@@H](C)[C@H](O)[C@@H](C)C(=O)[C@@H](C)[C@H](O)[C@@H](C)/C=C/C(=O)O[C@@H]2[C@H](C)[C@H](CC1)O[C@]1(CC[C@H](C)[C@H](C[C@@H](C)O)O1)[C@H]2C [Oligomycin] | 1.09
4 | CN(N=O)c1cc(O)ccc1O [Dephostatin] | 0.908
5 | N.N.[Cl][Pt][Cl] [Cisplatin] | 1.02
6 | C[C@@]12C(=O)OC(=O)[C@]1(C)[C@H]1CC[C@@H]2O1 [Cantharidin] | 0.832
7 | C=C(C)[C@H]1Cc2c(ccc3c2O[C@@H]2COc4cc(OC)c(OC)cc4[C@@H]2C3=O)O1 [Rotenone] | 0.724
8 | CC(C)(c1ccc(OCC2CO2)cc1)c1ccc(OCC2CO2)cc1 (configuration not stated) | 0.939
9 | O=C1NC(=O)c2c1c1c3ccccc3n3c1c1c2c2ccccc2n1[C@H]1CC[C@@H]3O1 | 0.914 and 0.93
10 | CN1C(=O)CN=C(c2ccc(Cl)cc2)c2cc(Cl)ccc21 | 0.945
11 | CO[C@@H]1C[C@@H](C[C@H]2CC[C@H](C)[C@H]([C@@H](C)C(=O)O)O2)O[C@]2(O[C@](C)([C@H]3CC[C@@](C)([C@@H]4O[C@@H]([C@H]5O[C@@](O)(CO)[C@H](C)C[C@@H]5C)C[C@@H]4C)O3)C[C@H]2C)[C@@H]1C [Nigericin] | 0.544
12 | C#CCN(C)C(C)Cc1ccccc1 (configuration not stated) [Deprenyl] | 0.932
13 | CC(C)(C)c1cc(C=C(C#N)C#N)cc(Br)c1O | 0.905 ± 0.062
14 | CO/C1=C\C(C)=C\[C@@H](C)[C@@H](O)[C@@H](C)C/C(C)=C/C=C/[C@H](OC)[C@@H]([C@@H](C)[C@@H](O)[C@H](C)[C@@]2(O)C[C@@H](O)[C@H](C)[C@@H](C(C)C)O2)OC1=O [Bafilomycin A1] | 0.765
15 | NC(=S)N/N=C\c1coc2ccccc2c1=O.[Cl][Cu][Cl] [Akt Inhibitor XI] | 0.972
16 | CC1=C2C(=O)[C@H]3[C@@H](CC=C4C[C@@H](O)CC[C@@]43C)[C@@H]2CC[C@]12O[C@@H]1C[C@H](C)CN[C@H]1[C@H]2C [Jervine] | 1.04
17 | O=C1C2CCN(CC2)C1(CO)CO | 0.985
18 | C[C@@]1(CO)[C@H](O)CC[C@@]2(C)[C@H]1CC[C@H]1C[C@@H]3C[C@@]12CC[C@]3(O)CO [Aphidicolin] | 0.431
19 | CCC1(c2ccc(N)cc2)CCC(=O)NC1=O (configuration not stated) [Aminoglutethimide] | 0.998
20 | CNc1ccc2oc(C[C@H]3O[C@@]4(CC[C@H]3C)O[C@H]([C@H](C)C(=O)c3ccc[nH]3)[C@H](C)C[C@H]4C)nc2c1C(=O)O | 0.823
21 | CN1C(=O)[C@]2(Cc3cn([C@]45C[C@@]67SS[C@@](CO)(C(=O)N6[C@H]4Nc4ccccc45)N(C)C7=O)c4ccccc34)SS[C@@]1(CO)C(=O)N2C [Chetomin] | 0.155
22 | N=C(N)NN [Aminoguanidine, HCl] | 0.889
